# Test results from PMC6919601, “Identification of Plasmodium dipeptidyl aminopeptidase allosteric inhibitors by high throughput screening” (PLoS ONE, 2019).
# About 230 (0.21%) of roughly 110,000 compounds showed an effect of 50% or more. The list shows a part of the results.
# Biological target: DPAP1 (Plasmodium falciparum, UniProt Q8IIJ9)
# Assay: primary screen, percent inhibition; read by cleavage of a fluorogenic dipeptide substrate; higher = more effect of the substance
# Parameters: species or system P. falciparum D10 trophozoite lysates; single well
# 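Further: 30 min substrate incubation versus DMSO and 10 µM JCP410 controls.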
# Chain of DPAP1 (Q8IIJ9 whole entry, looked up): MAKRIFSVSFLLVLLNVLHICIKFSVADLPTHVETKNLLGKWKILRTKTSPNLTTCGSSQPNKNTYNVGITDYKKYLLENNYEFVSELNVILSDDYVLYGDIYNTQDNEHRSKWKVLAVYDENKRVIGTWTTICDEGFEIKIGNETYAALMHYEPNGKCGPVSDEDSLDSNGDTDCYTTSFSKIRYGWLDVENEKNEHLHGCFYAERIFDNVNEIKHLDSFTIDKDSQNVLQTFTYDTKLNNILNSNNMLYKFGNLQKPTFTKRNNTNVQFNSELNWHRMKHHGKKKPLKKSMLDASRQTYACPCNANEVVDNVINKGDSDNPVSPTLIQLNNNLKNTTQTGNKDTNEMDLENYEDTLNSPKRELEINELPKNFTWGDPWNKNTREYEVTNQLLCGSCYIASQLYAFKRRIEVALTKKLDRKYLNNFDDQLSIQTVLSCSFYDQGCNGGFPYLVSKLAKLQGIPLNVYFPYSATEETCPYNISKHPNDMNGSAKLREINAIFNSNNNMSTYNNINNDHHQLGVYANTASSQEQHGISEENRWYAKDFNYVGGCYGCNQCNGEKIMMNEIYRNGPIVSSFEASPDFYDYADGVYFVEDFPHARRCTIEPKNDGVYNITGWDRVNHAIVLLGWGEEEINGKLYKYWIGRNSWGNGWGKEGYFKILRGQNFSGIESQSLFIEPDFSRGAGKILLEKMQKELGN
row,Compound,% Inhibition @ 10 uM [%]
1,CCOc1cccc(C(=O)Nc2ccc(Cl)c(-c3nc4ncccc4o3)c2)c1,-6.83
2,CC(=O)c1ccc(NC(=O)Cc2ccccc2F)cc1,-0.318
3,O=C(Nc1ccc2c(c1)OCO2)C1CCCCC1,-4.15
4,CCOc1ccc(CNC(=O)c2cc3c(O)nc4ccccc4c3s2)cc1,4.51
5,O=C(Nc1cccc(-c2cn3ccsc3n2)c1)c1cccc(Cl)c1,1.37
6,CCOc1ccc(NC(=O)C2=C(C)N=C(S)NC2c2cccs2)cc1 (stereo not shown),-2.48
7,O=C(Cc1ccccc1)Nc1ccccc1C(=O)Nc1ccc(C(=O)O)cc1,-3.37
8,COc1ccc(C)cc1N(CC(=O)N(C)C)S(=O)(=O)c1ccc(C)cc1,-5.13
9,COC(=O)c1cc(-c2c[nH]c3ccccc23)[nH]n1,-3.53
10,Cc1ccccc1Cn1c(=O)n(CCC(=O)NCc2ccccc2)c(=O)c2sccc21,1.82
11,CCN(CC)c1ncnc2c1[nH]c1ccc(OC)cc12,-3.24
12,CN1CCN(C(=O)c2ccc(N(C)C)cc2)CC1,-7.02
13,CC(CNCc1c(C(=O)O)n(Cc2cccc(Cl)c2)c2ccccc12)c1ccccc1 (stereo not shown),0.277
14,Cc1ccc(C)c(NC(=O)C(C)Sc2ccccc2)c1 (stereo not shown),-2.88
15,Cc1ccccc1OCC(O)Cn1c(SCC(C)C)nc2c1c(=O)[nH]c(=O)n2C (stereo not shown),7.2
16,CCOC(=O)c1ccc2nc(NC(=O)CSc3nc(C)cc(O)n3)sc2c1,26.7
17,CC(Nc1oc(/C=C/c2cccs2)nc1C#N)c1ccccc1 (stereo not shown),-1.71
18,COC(=O)C1=C(C)NC(=O)/C1=C\c1cc(C)n(-c2ccc(C)cc2C)c1C,0.146
19,CCN(CC)CCNC(=O)Cn1c(=O)c2cccn2c2cccnc21,-0.995
20,Cc1ccc(-c2nn(C)c(=O)c3ccccc23)cc1S(=O)(=O)NC(C)c1ccccc1 (stereo not shown),1.31
21,CC(NC(=O)CSc1nc2c(cc1C#N)CN(C)CC2)c1ccccc1 (stereo not shown),-1.38
22,COc1cc(N2CCCC2)c(OC)cc1/C=C1\NC(=O)N(Cc2ccccc2)C1=O,-0.469

row,Compound,% Inhibition @ 10 uM [%]
1,CC(=O)c1ccccc1-c1cccc(C(=O)N[C@@H](CC(C)C)C(=O)NCC#N)c1,-3.48
2,O=C1Nc2cccnc2Sc2ccccc21,3.29
3,O=C(Nc1ccccc1)n1c(=O)oc2cc(Br)ccc21,7.66
4,CN1CCN(c2nc3c(N)ncnc3n2CC(O)CO)CC1 (stereo not shown),-0.0217
5,Cc1cc(C)c(-c2c(NCCc3ccc(Cl)cc3)c(=O)c2=O)cc1C,-4.96
6,C=CCO/C(O)=C1/C(C)=Nc2ncnn2C1c1ccccc1OC (stereo not shown),-7.08
7,C1=CC2CC1CC2CN1CCc2c([nH]c3ccccc23)C1 (stereo not shown),-2.95
8,COc1ccc(-c2noc(CSc3nnc(-c4ccncc4)n3C)n2)cc1,6.01
9,O=C(CCC1CCCCC1)NC1(C(F)(F)F)C(=O)Nc2c1c(=O)[nH]c(=O)n2Cc1ccccc1 (stereo not shown),-4.85
10,CCCNc1nc(N)nc(-c2cc(Cl)ccc2OC)n1,-4.86
11,CCOc1ccc(CCNC(=O)C2CCCN(S(=O)(=O)N3CCOCC3)C2)cc1OCC (stereo not shown),-1.67
12,O=C(CSc1nnc(-c2ccc(Cl)s2)o1)NC1CCCCC1,3.44
13,CCC(C)NC(=O)CN(c1ccc(F)cc1)S(C)(=O)=O (stereo not shown),2.03
14,Cc1ccc(CNC(=O)CSCc2cnn(-c3ccccc3)c2-n2cccc2)cc1,-2.85
15,COc1cc(CN(CC2CCCO2)C(=O)c2ccc(Br)cc2)cc(OC)c1OC (stereo not shown),5.54
16,CCOC(=O)c1c(CNCCN(CC)CC)n(C)c2cc(Br)c(O)cc12,-4.24
17,COc1ccc(CCNC(=O)C2=Cc3sc4c(c3CS2)CCCC4)cc1OC,13.1
18,CN(C(=O)NCc1noc2ccccc12)C1CCCCC1,0.0244
19,O=C(Nc1ccccc1-c1nc2ccccc2s1)c1ccc(F)c(F)c1,-2.15
20,COc1cc2c(cc1OC)C1C(C(=O)N3CCN(c4ccccn4)CC3)c3ccccc3C(=O)N1CC2 (stereo not shown),5.74
21,CCCC1=C(C(=O)OCC)C(c2ccc(Cl)c(Cl)c2)C(C#N)=C(N)O1 (stereo not shown),1.96
22,COC(=O)c1cc(S(=O)(=O)NCCc2ccc(Cl)cc2)c[nH]1,0.867

row,Compound,% Inhibition @ 10 uM [%]
1,O=C(CCCN1C(=O)CSc2ncccc21)NCc1ccc(Cl)cc1,-2.37
2,CN(C)c1cc(NC(=O)CN2CCOCC2)c2ccccc2n1,-3.66
3,O=C(CN1C(=O)NC2NC(=O)NC21)NC1CCCCC1 (stereo not shown),-0.0735
4,CC(C)n1cc(NC(=O)C2=CC(c3ccco3)=NS(=O)(=O)N2C)cn1,2.32
5,O=C(Cn1cnc2ccccc2c1=O)Nc1cc(Cl)ccc1Oc1ccccc1,-1.22
6,Cc1ccc2oc(-c3ccc(N)c(C)c3)nc2c1,-1.85
7,O=C(Nc1cccnc1)C1c2ccccc2C(=O)N(C2CCCC2)C1c1cccs1 (stereo not shown),-2.28
8,COc1cccc(-n2c(C)cc(/C=C3\NC(=O)N(c4ccccc4)C3=O)c2C)c1,-3.26
9,COc1cccc(/C=N/n2cnnc2)c1OC,-0.339
10,CCCN(CCC)CCn1cnc2c3ccccc3nc-2c1O,6.31
11,Nc1c(Cl)cc(N2C(=O)c3ccccc3C2=O)cc1Cl,-5.41
12,c1ccc(OCCn2cnnn2)cc1,7.68
13,CCCCc1ccc(NC(=O)c2ccccc2OC)cc1,3.8
14,CCc1nc2ccccc2n1CC(O)COc1ccc(C(=O)O)cc1 (stereo not shown),2.95
15,Cc1cc(S(=O)(=O)N2CCN(Cc3ccccc3)CC2)c(Cl)cc1Cl,2.26
16,CCCN(Cc1ccc(O)cc1)CC1CC1,0.0792
17,O=C1C2CC=CCC2C(=O)N1c1cccc(Cl)c1 (stereo not shown),-3.5
18,c1ccc2cc(CN3CCc4c([nH]c5ccccc45)C3)ccc2c1,1.48
19,O=C(C1CCN(S(=O)(=O)c2c[nH]cn2)CC1)N1CCN(Cc2ccc3c(c2)OCO3)CC1,1.23
20,C=CCOc1cccc(C2C(C(=O)c3ccc(F)cc3)=C(O)C(=O)N2Cc2cccnc2)c1 (stereo not shown),-8.06
